# Experimental data: patent US11207320B2, “Compositions and methods for cancer expressing PDE3A or SLFN12” (The Broad Institute, Inc., priority 2015, dated 2021)
# The source gives many values for each of these; only a part stands here.
# Test system: 766 cancer cell lines
# Test: Large-scale cell-line viability measurements (766 cancer cell lines, 72 h, AUC)
# Assay type: cell-based, human
# Protocol: Cell lines were treated for 72 hours with concentrations ranging from 66.4 μM-2 nM in 2-fold step dilutions.
# To characterize cellular sensitivity to DNMDP further, 766 genomically characterized cancer cell lines were screened for DMNDP sensitivity at concentrations ranging from 66.4 μM to 2 nM in 2-fold dilution steps for 72 hours. From these cell lines, 22 cell lines were categorized as sensitive with a robust Z-score lower than −4, which represented multiple lineages including multiple melanoma cell lines, amongst others (Table 1).
# The sensitivity of […] cancer cell lines (CCLs) was measured drawn from 23 different lineages to DNMDP. Each cell line was plated in its preferred media in white opaque 1536-plates at a density of 500 cells/well. After incubating overnight, DNMDP was added by acoustic transfer at 16 concentrations ranging from 66.4 μM-2 nM in 2-fold steps in duplicate (Labcyte Echo 555, Labcyte Inc., Sunnyvale, Calif.). After 72 hours treatment, cellular ATP levels were measured as a surrogate for viability (CELLTITERGLO®, Promega Corporation, Madison, Wis.) according to manufacturer's protocols using a ViewLux Microplate Imager (PerkinElmer, Waltham, Mass.) and normalized to background (media-only) and vehicle (DMSO)-treated control wells.
# Concentration response curves were fit using nonlinear fits to 2- or 3-parameter sigmoid functions through all 16 concentrations with the low-concentration asymptote set to the DMSO-normalized value, and an optimal 8-point dose curve spanning the range of compound-sensitivity was identified. The area under the 8-point dose curve (AUC) was computed by numeric integration as a metric for sensitivity for further analysis. Similar sensitivity measurements have been obtained for a collection of 480 other compounds, enabling analyses that identify cell lines responding uniquely to DNMDP (see Broad Institute Cancer Therapeutics Response Portal, a dataset to identify comprehensively relationships between genetic and lineage features of human cancer cell lines and small-molecule sensitivities for complete list of compounds).
# [1] = cell line LN229 (CENTRAL NERVOUS SYSTEM)
# [2] = cell line LS123 (LARGE INTESTINE)
# [3] = cell line LS180 (LARGE INTESTINE)
# [4] = cell line LS411N, LARGE INTESTINE, 72 hours
# [5] = cell line LS513, LARGE INTESTINE, 72 hours
# [6] = cell line LS1034 (LARGE INTESTINE)
# [7] = cell line MC116, HAEMATOPOIETIC AND LYMPHOID TISSUE, 72 hours
# [8] = cell line MDAMB361, BREAST, 72 hours
# [9] = cell line MDST8 (LARGE INTESTINE)
# [10] = cell line ME1 (HAEMATOPOIETIC AND LYMPHOID TISSUE)
# [11] = cell line MEC1, HAEMATOPOIETIC AND LYMPHOID TISSUE, 72 hours
# [12] = cell line MELJUSO, SKIN, 72 hours
# [13] = cell line MHHCALL3 (HAEMATOPOIETIC AND LYMPHOID TISSUE)
# [14] = cell line MHHCALL4, HAEMATOPOIETIC AND LYMPHOID TISSUE, 72 hours
# [15] = cell line MHHNB11, AUTONOMIC GANGLIA, 72 hours
# [16] = cell line MOLM13, HAEMATOPOIETIC AND LYMPHOID TISSUE, 72 hours
# [17] = cell line MOLP2 (HAEMATOPOIETIC AND LYMPHOID TISSUE)
# [18] = cell line MOLP8 (HAEMATOPOIETIC AND LYMPHOID TISSUE)
# [19] = cell line NAMALWA (HAEMATOPOIETIC AND LYMPHOID TISSUE)
# [20] = cell line NB1 (AUTONOMIC GANGLIA)
# [21] = cell line NCIH28, PLEURA, 72 hours
# [22] = cell line NCIH358, LUNG, 72 hours
# [23] = cell line NCIH441, LUNG, 72 hours
compound,measurement,setting,value
"CCN(CC)c1ccc(C2=NNC(=O)CC2C)cc1[N+](=O)[O-] (centres unmarked) [DNMDP, 6-(4-(diethylamino)-3-nitrophenyl)-5-methyl-4,5-dihydropyridazin-3(2H)-one]",DNMDP AUC,[1],6.9883
same,Robust Z-score,[1],0.3712
same,DNMDP AUC,cell line LOXIMVI (SKIN),7.058
same,Robust Z-score,cell line LOXIMVI (SKIN),0.4444
same,DNMDP AUC,[2],6.8175
same,Robust Z-score,[2],0.1919
same,DNMDP AUC,[3],7.0225
same,Robust Z-score,[3],0.4071
same,DNMDP AUC,[4],7.2279
same,Robust Z-score,[4],0.6227
same,DNMDP AUC,[5],7.3199
same,Robust Z-score,[5],0.7193
same,DNMDP AUC,[6],6.6323
same,Robust Z-score,[6],−0.002467
same,DNMDP AUC,[7],7.5146
same,Robust Z-score,[7],0.9236
same,DNMDP AUC,cell line MCAS (OVARY),6.8199
same,Robust Z-score,cell line MCAS (OVARY),0.1944
same,DNMDP AUC,cell line MDAMB231 (BREAST),6.7222
same,Robust Z-score,cell line MDAMB231 (BREAST),0.0919
same,DNMDP AUC,[8],9.2909
same,Robust Z-score,[8],2.788
same,DNMDP AUC,cell line MDAMB435S (SKIN),6.9227
same,Robust Z-score,cell line MDAMB435S (SKIN),0.3024
same,DNMDP AUC,cell line MDAMB468 (BREAST),6.9388
same,Robust Z-score,cell line MDAMB468 (BREAST),0.3193
same,DNMDP AUC,[9],6.8209
same,Robust Z-score,[9],0.1955
same,DNMDP AUC,[10],6.7039
same,Robust Z-score,[10],0.07269
same,DNMDP AUC,[11],7.376
same,Robust Z-score,[11],0.7782
same,DNMDP AUC,cell line MELHO (SKIN),6.9769
same,Robust Z-score,cell line MELHO (SKIN),0.3592
same,DNMDP AUC,[12],7.1877
same,Robust Z-score,[12],0.5805
same,DNMDP AUC,cell line MESSA (SOFT TISSUE),7.0401
same,Robust Z-score,cell line MESSA (SOFT TISSUE),0.4256
same,DNMDP AUC,cell line MFE319 (ENDOMETRIUM),6.7242
same,Robust Z-score,cell line MFE319 (ENDOMETRIUM),0.094
same,DNMDP AUC,[13],6.5324
same,Robust Z-score,[13],−0.1073
same,DNMDP AUC,[14],8.031
same,Robust Z-score,[14],1.466
same,DNMDP AUC,cell line MHHES1 (BONE),6.5353
same,Robust Z-score,cell line MHHES1 (BONE),−0.1043
same,DNMDP AUC,[15],8.8255
same,Robust Z-score,[15],2.3
same,DNMDP AUC,cell line MIAPACA2 (PANCREAS),6.8607
same,Robust Z-score,cell line MIAPACA2 (PANCREAS),0.2373
same,DNMDP AUC,cell line MKN1 (STOMACH),7.0915
same,Robust Z-score,cell line MKN1 (STOMACH),0.4795
same,DNMDP AUC,cell line MKN45 (STOMACH),6.6662
same,Robust Z-score,cell line MKN45 (STOMACH),0.03312
same,DNMDP AUC,cell line MKN74 (STOMACH),6.5911
same,Robust Z-score,cell line MKN74 (STOMACH),−0.04571
same,DNMDP AUC,[16],7.646
same,Robust Z-score,[16],1.062
same,DNMDP AUC,[17],6.928
same,Robust Z-score,[17],0.3079
same,DNMDP AUC,[18],6.6347
same,Robust Z-score,[18],5.248E−05
same,DNMDP AUC,cell line MORCPR (LUNG),6.9126
same,Robust Z-score,cell line MORCPR (LUNG),0.2917
same,DNMDP AUC,cell line MSTO211H (PLEURA),6.5871
same,Robust Z-score,cell line MSTO211H (PLEURA),−0.04991
same,DNMDP AUC,[19],6.5738
same,Robust Z-score,[19],−0.06387
same,DNMDP AUC,[20],6.9466
same,Robust Z-score,[20],0.3274
same,DNMDP AUC,[21],7.3081
same,Robust Z-score,[21],0.7069
same,DNMDP AUC,cell line NCIH226 (LUNG),6.6624
same,Robust Z-score,cell line NCIH226 (LUNG),0.02913
same,DNMDP AUC,cell line NCIH292 (LUNG),6.8954
same,Robust Z-score,cell line NCIH292 (LUNG),0.2737
same,DNMDP AUC,cell line NCIH322 (LUNG),6.9254
same,Robust Z-score,cell line NCIH322 (LUNG),0.3052
same,DNMDP AUC,[22],7.1753
same,Robust Z-score,[22],0.5675
same,DNMDP AUC,[23],7.1284
same,Robust Z-score,[23],0.5183
same,DNMDP AUC,cell line NCIH460 (LUNG),6.8048
